# According to PubChem BioAssay AID463173 (ICCB-Longwood Screening Facility, Harvard Medical School, 2010):
# Out of some 52,000 compounds screened, about 1,700 (3.3%) were called active. No stated cut-off is given here; in the data, active means survival mostly below about 52% (no sharp cut-off); inactive means mostly above about 56%. This is one part of the list.
# Test system: Wild type
# Experiment: S. aureus survival, RN4220 and DeltatarO strains – OD600, teichoic acid synthesis inhibitors, primary screen (AID 463173)
# Details: S. aureus RN4220 wild type/DeltatarO growth, OD600, 18 h, active compounds read low, screened at 18.75 µg/mL (by protocol)
row,SMILES,survival
1,CCN(CC)CC(=O)c1c[nH]c2ccccc12,inactive: 108%
2,COc1ccc(CCNC(=O)Cc2c(C)c3cc(OC)c(OC)cc3oc2=O)cc1,inactive: 87%
3,Cc1cccc(C)c1OCC(=O)Nc1nonc1-c1ccc(Br)cc1,inactive: 35%
4,CCOc1ccc2oc(=O)cc(CN3CCN(c4ccc(OC)cc4)CC3)c2c1,inactive: 75%
5,CCN(C(=O)c1cc2c(s1)-c1c(C)cccc1OC2)c1cc(C)ccc1C,active: 11%
6,CCN(C(=O)CCS(=O)(=O)c1cccc2nsnc12)c1cccc(C)c1,inactive: 88%
7,O=C(Nc1nc2n(n1)C(c1ccc(F)cc1)C=C(c1ccc(Cl)cc1)N2)c1ccco1 (centres undefined),inactive: 28%
8,CCOC(=O)c1ccc(N2C(=O)c3n[nH]c(-c4cccs4)c3C2c2ccc(O)c(OC)c2)cc1 (centres undefined),inactive: 93%
9,O=C(NCC12CC3CC(CC(C3)C1)C2)c1cc2nc(-c3ccc(Cl)cc3)cc(C(F)(F)F)n2n1,inactive: 60%
10,Cc1cc(S(=O)(=O)Nc2cc3c(cc2N2CCOCC2)n(C)c(=O)n3C)ccc1F,inactive: 82%
11,CCc1nc2ccc(C(=O)NCCc3ccc(SC)cc3)cc2nc1CC,inactive: 81%
12,COC(=O)c1c(SCC(=O)Nc2cccc(C(F)(F)F)c2)[nH]c2ccccc2c1=O,inactive: 84%
13,COc1ccc(NC(=O)C(CC(C)C)NC(=O)C2CCCCC2)c(OC)c1 (centres undefined),inactive: 63%
14,CC(C)NC(=O)Cn1ncn2c(cc3cc(F)ccc32)c1=O,inactive: 83%
15,Clc1cccc(-c2nnc(CN3CCN(c4ccccn4)CC3)o2)c1,inactive: 82%
16,COCCNc1c(-c2ccc(N)cc2)nc2ccc(C)cn12,inactive: 101%
17,COc1ccc(-n2c(=O)c3ccccc3n(Cc3ccc(F)cc3Cl)c2=O)cc1OC,inactive: 96%
18,CCc1ccccc1N1CC(c2nnc(NC(=O)c3ccco3)s2)CC1=O (centres undefined),inactive: 82%
19,CCN(CC)S(=O)(=O)c1ccc2c(c1)N(CC(=O)N1CCN(c3cc(Cl)ccc3C)CC1)C(=O)CO2,inactive: 78%
20,CC(=O)OCc1cnc(C)c2oc(=O)c(C(=O)Nc3ccc(F)cc3C)cc12,inactive: 124%
21,Cc1cccc(N2CCN(c3nc4ccccc4c4nc(-c5ccccc5)nn34)CC2)c1C,inactive: 87%
22,COc1ccc(NC(=O)C2CCN(C(=O)c3sc4nc[nH]c(=O)c4c3C)CC2)c(OC)c1,inactive: 81%
23,Nc1nc(-c2ccco2)nn1C(=O)c1ccc(Cl)cc1Cl,inactive: 97%

row,SMILES,survival
1,COc1ccc(C2CC(=O)c3cc(-c4nc(-c5ccc(Cl)cc5)cs4)c(=O)[nH]c3C2)cc1 (centres undefined),inactive: 138%
2,COc1cc(NC(=O)c2cc(-c3ccccc3O)no2)cc(OC)c1OC,inactive: 73%
3,CC(=O)Nc1nonc1-c1nnc(SCC(=O)Nc2ccccc2Cl)n1C,inactive: 83%
4,CCOc1ccc(CNC(=O)C2CCN(C3=NS(=O)(=O)C(c4ccc(C)cc4)=C3CC)CC2)cc1,inactive: 89%
5,COc1ccc(-c2cc3nc(C)c(CCC(=O)Nc4cccc(C(F)(F)F)c4)c(C)n3n2)c(OC)c1,inactive: 75%
6,COC(=O)C(Cc1c[nH]c2ccccc12)NC(C)=O (centres undefined),inactive: 107%
7,CCn1cc2nc(SCC(=O)Nc3ccccc3F)n(Cc3ccc(C)cc3)c(=O)c2n1,inactive: 95%
8,CCc1ccc(-c2nc(CN3CCCC(C(=O)NCc4ccc(C)cc4)C3)c(C)o2)cc1 (centres undefined),inactive: 88%
9,Cc1ccnc(NC(=O)c2c(C)oc3ncn(CC(C)C)c(=O)c23)c1,inactive: 69%
10,Cc1ccc(CNC(=O)Nc2cn(CC(C)C)c(=O)c3ccccc23)cc1,inactive: 72%
11,Cc1cc(C)c(NC(=O)CN2c3ccccc3S(=O)(=O)c3ccccc32)c(C)c1,inactive: 124%
12,O=C(NCCCN1CCN(c2ccccc2F)CC1)c1cc2c(Cl)nc3ccccc3c2s1,inactive: 82%
13,CN(C(=O)Cn1cc(S(=O)(=O)N2CCN(c3ccccc3F)CC2)c2ccccc2c1=O)c1ccc(Cl)cc1,inactive: 71%
14,COCC(C)NC(=O)c1cnn2c(C(F)F)cc(-c3ccccc3)nc12 (centres undefined),inactive: 74%
15,CC(=O)c1ccc(NC(=O)c2cc(-c3ccc4c(c3)OCO4)on2)cc1,inactive: 75%
16,CCCCCOc1ccc(NC(=O)Cc2csc(C)n2)cc1,inactive: 89%
17,Cc1ccc(C(=O)Nc2ccccc2C(=O)O)cc1S(=O)(=O)N1CCCCCC1,inactive: 105%
18,Cc1nnc(SCc2ccccc2Cl)c2cc3sccc3n12,inactive: 86%
19,O=C(Nc1sc2c(c1C(=O)Nc1ccc(Cl)cc1)CCCC2)c1cccs1,inactive: 130%
20,CN1CCN(CCCNC(=O)Cn2c(-c3cccs3)cc3cc(Cl)ccc32)CC1,inactive: 78%
21,Cc1ccc(CN2COc3cc(C)c4c(oc(=O)c5ccccc54)c3C2)cc1,inactive: 85%
22,COc1cc(OC)c(NC(=O)C(NS(=O)(=O)c2cccc3nsnc23)c2ccccc2)cc1Cl (centres undefined),inactive: 45%
23,CCOc1ccc(NC(=O)c2cnn(-c3ccc(C)c(Cl)c3)c2C2CCNCC2)cc1,inactive: 82%

row,SMILES,survival
1,Cc1ccc2[nH]c(C(=O)Nc3ccccc3)cc2c1,inactive: 91%
2,COc1ccc(-c2[nH]c(-c3ccccc3)nc2SCC(=O)Nc2ccc3c(c2)OCCO3)cc1,inactive: 69%
3,CCOc1cc(C2NC(=O)c3c(sc4c3CCN(C)C4)N2)ccc1OC(=O)c1ccccc1Cl (centres undefined),inactive: 125%
4,Cc1ccc(S(=O)(=O)CCC(=O)Nc2ccc(Br)cc2C)cc1,inactive: 94%
5,CCOC(=O)c1cnc2c(ccc3ccccc32)c1Nc1ccccc1OC,inactive: 69%
6,CCOC(=O)c1cnc2ccccc2c1NCC(C)O (centres undefined),inactive: 93%
7,CCOC(=O)c1cc(-c2ccccc2)n(CC(=O)NC2CCC(C)CC2)c1C (centres undefined),inactive: 81%
8,COc1ccc(-c2noc(CSc3nnc(Cc4ccccc4)n3-c3ccccc3)n2)cc1OC,inactive: 109%
9,Nc1cccc(C(=O)NC23CC4CC(CC(C4)C2)C3)c1,inactive: 95%
10,CC1(C)CC(NC(=O)CCc2ccccc2)CC(C)(C)N1,inactive: 112%
11,O=C(NCCc1csc(-c2ccc(F)cc2)n1)c1cccs1,inactive: 59%
12,O=C(NC1CC(=O)N(c2ccc3c(c2)OCCO3)C1)c1c(F)cccc1Cl (centres undefined),inactive: 120%
13,Cc1ccc2c(c1)c(=O)c(C(=O)c1ccc3c(c1)OCO3)cn2Cc1cccc(F)c1,inactive: 87%
14,COCCNc1oc(-c2ccc(COc3ccc(OC)cc3)o2)nc1C#N,inactive: 90%
15,Cc1ccc(-c2nn(-c3ccc(F)cc3F)c3c2cnc2c(F)cccc23)cc1,inactive: 89%
16,Cc1ccc(NC(=O)CSc2nc3ccccc3c3nc(CCc4c(C)n[nH]c4C)nn23)c(C)c1,inactive: 78%
17,Cc1nc2c(C(=O)O)cnn2c(C)c1Cc1ccccc1,inactive: 68%
18,Cc1ccccc1C(=O)Nc1nc2nc(C)c(C)c(=O)n2[nH]1,inactive: 89%
19,CCCc1nn2c(=O)cc(COC(=O)c3ccc(NC(=O)CCc4ccccc4)cc3)nc2s1,inactive: 69%
20,CCc1ccc2oc(-c3cccc(NC(=O)c4cc5ccccc5o4)c3)nc2c1,inactive: 28%
21,Cc1ccc(C(=O)CSc2ncc3c(n2)-c2ccccc2N(Cc2ccc(Cl)cc2)S3(=O)=O)cc1,inactive: 82%
22,Cc1ccc2nc(N3CCN(c4cccc(Cl)c4)CC3)c3nnnn3c2c1,inactive: 72%
23,CCCCOc1ccc(CNC(=O)c2ccc(-c3nc(CN4CCc5ccccc54)c(C)o3)cc2)cc1,inactive: 73%

row,SMILES,survival
1,COc1cccc(NC(=O)c2sc3nc4n(c(=O)c3c2C)CCC4)c1,inactive: 81%
2,COc1ccc2[nH]c(=O)c(CN(Cc3ccco3)C(c3nnnn3Cc3ccccc3)C(C)C)cc2c1 (centres undefined),inactive: 111%
3,CC1=C(C(N)=O)C(c2ccc(C)cc2)n2nc(SCc3ccccc3F)nc2N1 (centres undefined),inactive: 73%
4,CC(=O)N1N=C(N)SC1(C)c1ccccc1 (centres undefined),inactive: 101%
5,CCOC(=O)c1cccc(NC(=O)c2cc(S(=O)(=O)N3CCCC(C)C3)cn2C)c1 (centres undefined),inactive: 75%
6,CCN(CC)c1ccc(C=C2C(=O)OC3(CCCC3)OC2=O)cc1,inactive: 105%
7,CCN(CC)C(=O)N1CCc2cc(OC)c(OC)cc2C1c1cc2cc(C)ccc2n(C(=O)N(CC)CC)c1=O (centres undefined),inactive: 99%
8,CC(=O)Nc1ccccc1-c1nc2ccccc2n(CC(=O)c2ccc(Br)cc2)c1=O,inactive: 85%
9,Cc1cc(C)cc(NC2=C(c3ccccc3)C(=O)c3ccccc32)c1,inactive: 39%
10,COc1cccc(CNC(=O)CSc2nnc(C)c3c(C)n(-c4ccccc4)nc23)c1OC,inactive: 75%
11,COc1cc(C2C(=O)N(C3CCCCC3)CC(=O)N2CCC2=CCCCC2)ccc1OC(C)C (centres undefined),inactive: 135%
12,CCOC(=O)C1CCCN(C(=O)Cn2ncc3c(C)n(Cc4ccccc4F)c(C)c3c2=O)C1 (centres undefined),inactive: 122%
13,COc1cccc(-n2cc(C(=O)Nc3cc(OC)c(OC)c(OC)c3)c3ccccc3c2=O)c1,inactive: 114%
14,COC(=O)CNC(c1ccccc1)c1cc(Br)ccc1NC(=O)c1ccccc1 (centres undefined),inactive: 62%
15,COc1ccc(-c2cc(C(F)(F)F)nc(SCC(=O)N3CCCCC3C)n2)cc1OC (centres undefined),inactive: 69%
16,CCc1cccc(C)c1NC(=O)C1CCN(c2nn3c(=O)cc(C)nc3s2)CC1,inactive: 118%
17,CCN1CCN(c2ccc(NC(=O)c3cccc(Cl)c3Cl)cc2)CC1,inactive: 111%
18,C/C(=N\NC(N)=O)C1CC(c2ccccc2)C(=O)O1 (centres undefined),inactive: 83%
19,Cc1ccc2oc(=O)c3cc(C(=O)Nc4ccccc4C(N)=O)sc3c2c1,inactive: 88%
20,O=C(NCc1ccccc1)C1CCCN(c2ncccn2)C1 (centres undefined),inactive: 104%
